These results are taken from the supplement of paper PMC10126150.

Sequences with one replicate were seen in a single cluster, so their values are uncertain.

The subject of this series is ATP. Put plainly: switch fluorescence ratio, 500 uM ATP over buffer (Cy3 cluster intensity, sum of 5 cycles each) (fold (ratio)); higher = stronger signal-on switching upon ATP binding; sequences stand for … in TCGTCGGCAGCGTCAGATGTGTATAAGAGACAGTTTTTTTTTTTTTTTTTTTTTTTTT…TC. As to conditions: aptamer strand: ATP DNA aptamer (quencher-CACCTGGGGGAGTATTGCGGAGGAAGG + anchor), 100 nM annealed; ATP concentration: 500 uM; one replicate. The procedure, abridged:
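Imaging in selection buffer was followed by imaging after 15 min with 500 uM ATP at 22 °C, for Cy3-labelled switching-strand clusters annealed to 100 nM quencher-labelled ATP aptamer on a modified Illumina MiSeq flow-cell. Five of these buffer/ATP cycles ran, separated by NaOH stripping and re-annealing. The fluorescence ratio per cluster is summed target-cycle over summed buffer-cycle Cy3 intensity, averaged per switch-domain sequence; clusters outside 100-1000 RFU were removed.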
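Note: ATP exposure 15 min at 22 °C before imaging.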

In the case of CAGTGCCCCT, the switch fluorescence ratio is 1.02.
Next, AAGGGCTTGT: 1.02; GATCGGGTA: 0.996.
Next, TACAACCGTA: 1.06; ATCATCGTCT: 0.99; AGCTACGGGA: 1.14.
Next, TCGCTCTAAT: 1.07; AACCCCCTAC: 1.31; CAACCACCTT: 1.27.
For ACCAGACGAA, the switch fluorescence ratio was found to be 1.2.
As for CCAAGCACTC, the figure is 2.8; as for ATAAGCCC, 1.05.
Next, CAGGAAAGGT: 0.981; TACCTACTAA: 1.25; ATTTTAGACG: 1.11.
As for GCGTCTAAAT, the figure is 0.964.
On to TAAGTGATAT, for which the switch fluorescence ratio was determined as 0.964.
For ACGCGAGCAG, the switch fluorescence ratio amounted to 1.03.
As for TCCAACGTGG, the figure is 1.11; as for TACTATTG, 1.04; as for TTCATCGCGG, 1.04.
As for ATATCAACTA, the figure is 1.01; as for GCTCGAACCC, 1.08.
As for GTAAGGCGCG, the figure is 0.983; as for TTGTCTGTTG, 1.01.
As for GACATTCAAT, the switch fluorescence ratio came to 1.02.
GTAAACATGG: the switch fluorescence ratio stood at 0.965.
Next, TTTACACCGG: 1.06; ACATTTAGGT: 0.987.
As for ATAGTTATCA, the switch fluorescence ratio is 0.999.
Next, AATTTGACTA: 1.02; AAAGTATGAT: 0.987.
As for CGGGGTTTAC, the figure is 2.16.
As for TCCAATGT, the figure is 1.02.
As to GAAAATCTTT, the switch fluorescence ratio amounted to 0.992.
Next, TCATCTTATC: 1.02; ATGCTGGTA: 0.949; CAATGTGATG: 1.03.
As to GCCAAAGTGC, the switch fluorescence ratio was 0.997.
Next, TTCAGCGGTC: 1.07; GACTTAATGT: 1.01; CTGATAGCTG: 1.14.
For TTTACGGAAA, the switch fluorescence ratio is 0.999.
As for GCGGGTTA, the figure is 0.945.
Next, TCAACTCTCC: 1.12; AATCCATAGC: 1.05.
Turning to CTACCTTTTA, the switch fluorescence ratio was 1.02.
As for AGAGCCGCTC, the figure is 1.05; as for TTAAATGAAC, 1.07; as for TTTTGCTTAC, 2.06.
As for CGCCTTTCG, the switch fluorescence ratio turned out to be 1.
Turning to GATGGAGGTC, the switch fluorescence ratio stood at 1.01.
For the sequence ATCGAGAAGC, the switch fluorescence ratio came out at 1.07.
As for AACTTATTCC, the switch fluorescence ratio was 1.16.
Next, CAGAGGGCCT: 1.04; GCATATGGCA: 1.03; AGCAGATCGA: 1.13.
Consider TCATTGTTGT, for which the switch fluorescence ratio came out at 0.958.
Next, TTAGATTGAT: 1.01; TATACTATAT: 1.04.
As for TCGGATGCC, the figure is 1.09; as for AACGTGGACG, 0.943.
Next, AAGGTGAACT: 1.04; CAGCACAGTG: 1.08.
Turning to GCGCTCGGGA, the switch fluorescence ratio came out at 1.01.
As for TCTTGATCCC, the figure is 0.978.
Next, TGGGATTCAG: 1.02.
